In PubChem BioAssay AID686971 (National Center for Advancing Translational Sciences (NCATS), 2013):
Hit rate of the full screen: of about 360,000 compounds, about 7,500 (2.1%) were called active. This list was built around the results that the source calls inconclusive (neither active nor inactive); the mix of calls is not that of the screen. The call rests on the fitted dose curve; in most records, active means well fitted cell-killing curve with a large enough effect; inconclusive means small, poorly fitted or top-dose-only effect, or effect the other way, or another doubt; inactive means no such curve, though single readings can be large or run the other way. No potency is given beside an inconclusive call; the fits are too rough.

Assay: qHTS for induction of synthetic lethality in tumor cells producing 2HG: qHTS for the HT-1080-IDH1KD cell line;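 on activity, negative = toxicity: 0% = DMSO wells and -100% = cell-free medium wells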
Conditions: HT-1080 IDH1 knockdown viability, ATP luminescence, 48 h; activity, negative = toxicity: at 46.1 µM (top of the series) unless noted
How it was run: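 Knockdown cells (IDH1KD HT-1080) received compounds 2 h after plating at 750 cells/well and were kept 48 h at 37 °C in 5% FBS RPMI. A CellTiter-Glo luminescence read gave % activity for curve fitting.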
Potency means the concentration at half of the fitted maximal effect; tags describe the fitted curve by direction and shape.

SMILES	Potency	activity, negative = toxicity
CCOc1ccc(-c2cc(N3C(=O)Nc4ccccc4N3O)n[nH]2)cc1	active: 20.6 µM	–
ONC(=Nc1ccccc1Cl)c1ccccc1Cl	–	inactive: -0.19%
CCN(CCC(=O)Nc1ccc(Br)c(C)c1)Cc1ccccc1	inconclusive [cytotoxic, single point]	–
CCCCCCC(=O)N1CCC(c2nc3c(nnn3Cc3ccccc3Cl)c(=O)[nH]2)CC1	active: 11.2 µM	–
CCN(CC)CCNC(=O)C(Oc1ccccc1)Oc1ccccc1	–	inactive: 0.168%
CN(C)CCCNc1nc2cc(-c3ccsc3)sc2c(=O)n1C	inconclusive [cytotoxic, single point]	–
COc1cc(/C=C/C(=O)OCC(=O)N(CC(C)C)c2c(N)n(Cc3ccccc3)c(=O)[nH]c2=O)ccc1O	inconclusive [cytotoxic, single point]	–
N#CCC(=O)N/N=C/c1cn(Cc2cccc3ccccc23)c2ccccc12	active: 10.3 µM	–
Cc1ccc(S(=O)(=O)CCc2nc3ccccc3n2CCC#N)cc1	inconclusive [cytotoxic, single point]	–
CCOc1ccc2[nH]c(=O)c(CN(Cc3cccs3)Cc3nnnn3C(C)(C)C)cc2c1	inconclusive [cytotoxic, partial curve]	–
COc1ccc(S(=O)(=O)N2CCCC(C(=O)NCc3ccncc3)C2)cc1 (stereo not drawn)	–	inactive: -6.31%
c1cncc(-c2nnc(-c3cccnc3)nn2)c1	inconclusive [cytotoxic, single point]	–
CCCCN(CC)CCNC(=O)c1cc2c(=O)n(C)c3ccccc3c2s1	inconclusive [cytotoxic, partial curve]	–
Cc1ccc(S(=O)(=O)Nc2ccc(NC(=O)c3c(F)c(F)c(F)c(F)c3F)cc2)cc1	inconclusive [cytotoxic, single point]	–
COc1cc(NC(=O)C2CC(c3ccccc3Cl)=NO2)cc(OC)c1OC (stereo not drawn)	–	inactive: -3.49%
CCSc1ccc(-c2cc(NC=O)c3ncc(-c4cccc(C(=O)NCCN(C)C)c4)n3c2)cc1	inconclusive [cytotoxic, single point]	–
COc1ccc2cc(C)c(SCC(=O)Nc3cc(C)on3)nc2c1	inconclusive [cytotoxic, partial curve, poor fit]	–
CC(=O)Nc1nnc(CCS(=O)(=O)c2ccc(C)cc2)s1	–	inactive: 21.7%
NC(=O)c1cc2c3ccccc3ccn2c1-c1ccccc1	inconclusive [cytotoxic, full curve]	–
N#C/C(=C\c1ccc[nH]1)C(=O)NC1CC1	inconclusive [rising, partial curve, poor fit]	–
O=C(/C(=C/O)N=Nc1ccccc1Cl)c1ccccc1	active: 14.6 µM	–
COc1cccc2cc(C(=O)NC(C)C3CCCO3)c(=O)oc12 (stereo not drawn)	inconclusive [rising, partial curve]	–
CCOC(=O)N1CCN(C(=O)c2cn(CC)c3ccc(S(=O)(=O)N4CCOCC4)cc3c2=O)CC1	–	inactive: -6.74%
Cc1ccc(C2=NN(C(=O)COc3ncnc4ccccc34)C(c3ccco3)C2)cc1 (stereo not drawn)	inconclusive [cytotoxic, single point]	–
COc1ncc(-c2c(-c3ccccc3OC)sc3ccccc23)cn1	active: 16.4 µM	–

SMILES	Potency	activity, negative = toxicity
COCCn1c(SCCCC(=O)c2ccc(Br)cc2)nnc1-c1ccncc1	–	inactive: -18.1%
CN(C)CCNC(=O)c1cccc(-c2cnc3c(NC=O)cc(/C=C/c4ccccc4)cn23)c1	inconclusive [cytotoxic, single point]	–
Cc1noc(NS(=O)(=O)c2ccc(NC(=O)c3cc4ccccc4o3)cc2)c1C	–	inactive: 6.07%
COc1ccc(C(C)(O)c2nc(-c3ccc(Cl)cc3)cs2)cc1 (stereo not drawn)	inconclusive [cytotoxic, single point]	–
Cc1cc(S(=O)(=O)NCc2ccccc2)ccc1OCC(=O)Nc1cccc([N+](=O)[O-])c1	inconclusive [cytotoxic, single point]	–
O=C(c1coc2ccccc2c1=O)N1CCN(c2cccc(C(F)(F)F)c2)CC1	inconclusive [cytotoxic, single point]	–
Cc1ccc(-c2nc(NCCN(C)C)c3ccccc3n2)cc1	active: 20.6 µM	–
Cc1cc(C(C)(C)C)cc(C)c1CCNC(=O)c1ccc[n+]([O-])c1	inconclusive [cytotoxic, partial curve]	–
CCOC(=O)c1ccc2nc3c(cc2c1)CCS3	inconclusive [cytotoxic, single point]	–
COc1cccc(-c2nnc3n2N=C(c2cc(OC)ccc2OC)CS3)c1	–	inactive: -10.3%
COc1ccc(Oc2ccc(C(F)(F)F)cc2N)cc1	–	inactive: 2.98%
O=C(CS(=O)(=O)c1ccccc1)c1ccc2c(c1)OCCO2	–	inactive: 3.34%
CC(C)c1onc(C(=O)Nc2cccnc2Cl)c1[N+](=O)[O-]	–	inactive: 2.41%
CSc1ccccc1NC(=O)CSc1cccc[n+]1[O-]	–	inactive: -3.71%
COc1ccc(Nc2nc(-c3c(C)nc4ncccn34)cs2)cc1	active: 0.0073 µM	–
Cc1cccc(C)c1OCC(O)CNC(C)C (stereo not drawn)	–	inactive: -1.35%
Cc1ccccc1S(=O)(=O)NNC(=O)C(=O)NNc1ccccn1	inconclusive [cytotoxic, single point]	–
S=C(NCc1ccco1)Nc1ccc(Cl)cn1	–	inactive: -4.41%
CCOc1ccccc1NC(=O)CCNC(=O)C1CCN(S(=O)(=O)c2ccccc2)CC1	–	inactive: 8.34%
CC(C)(CNC(=O)c1cccc(F)c1)CNC(=O)c1cccc(F)c1	–	inactive: 10.8%
CCCCCCCCCc1conc1C(=O)/C=C/c1oc2c(c1C)CCC(C)C2 (stereo not drawn)	inconclusive [cytotoxic, single point]	–
CCCc1cnc(Nc2nc(C(N)Cc3ccc(OC)cc3)cs2)nc1 (stereo not drawn)	inconclusive [cytotoxic, single point]	–
CCCCN(C(=O)CSc1nnc(-c2ccc(OC)cc2)n1CC)c1c(N)n(Cc2ccccc2)c(=O)[nH]c1=O	–	inactive: 12.9%
CCC(C)COC(c1ccccc1)(c1ccccc1)C(Oc1nc(C)cc(C)n1)C(=O)O (stereo not drawn)	inconclusive [cytotoxic, single point]	–
Cn1cc(SCC(=O)Nc2nc3ccccc3s2)c2ccccc21	inconclusive [cytotoxic, partial curve]	–

SMILES	Potency	activity, negative = toxicity
O=C(NCc1ccco1)C1(S(=O)(=O)c2ccccc2)CC=CC1	–	inactive: 6.42%
COc1cc([C@H]2c3[nH]c4ccccc4c3C[C@H]3C(=O)N4[C@@H](c5cc(OC)c(OC)c(OC)c5)c5[nH]c6ccccc6c5C[C@H]4C(=O)N23)cc(OC)c1OC	active: 14.6 µM	–
CC(NCC(O)c1ccc([N+](=O)[O-])cc1)C12CC3CC(CC(C3)C1)C2 (stereo not drawn)	active: 23.1 µM	–
CCOC(=O)[C@]12CCC=C1N(Cc1ccc3c(c1)OCO3)C(=O)[C@H](CC(=O)NCC13CC4CC(CC(C4)C1)C3)C2	inconclusive [cytotoxic, single point]	–
NC(=S)NN=C1c2cc(OCCN3CCOCC3)ccc2-c2ccc(OCCN3CCOCC3)cc21	inconclusive [cytotoxic, partial curve]	–
COc1ccc(NC(=O)CCNC(=O)c2ccco2)c(OC)c1	–	inactive: -0.547%
Clc1cccc(Cl)c1COn1nnc2ccccc21	inconclusive [cytotoxic, single point]	–
CN(Cc1ccccc1)C(=O)CSc1nc2c(c(C(F)(F)F)n1)CCc1ccccc1-2	–	inactive: 1.33%
O=C(c1ccc2c(=O)n3c(nc2c1)CCCCC3)N1CCN(C(c2ccccc2)c2ccccc2)CC1	active: 10 µM	–
CC1CN(C(=O)COC(=O)/C=C/c2cccc([N+](=O)[O-])c2)CC(C)O1 (stereo not drawn)	inconclusive [cytotoxic, partial curve]	–
O=C(Nc1cc(S(=O)(=O)Nc2ccc(Cl)cc2)ccc1N1CCCCC1)c1ccc(F)cc1Cl	inconclusive [cytotoxic, single point]	–
O=C(NCC1CCCCC1)c1cc2ccccc2cc1O	inconclusive [cytotoxic, single point]	–
Nc1nonc1-n1nnc(C(=O)N/N=C/c2cc(Br)cs2)c1-c1ccccc1	–	inconclusive: -28.2% [cytotoxic]
Cc1ccc(NC(=O)CCl)c(C)c1	inconclusive [cytotoxic, single point]	–
Cn1c(Oc2cccnc2CN2CCCC2)nc2cc(-c3cccc(C(F)(F)F)c3)sc2c1=O	inconclusive [cytotoxic, single point]	–
CCCCNC(=O)OC1CC2CC1[C@H]1CCCCN1C2=O (stereo partly drawn)	active: 25.9 µM	–
Cc1ccccc1OCCn1cc(C=O)c2ccccc21	inconclusive [cytotoxic, partial curve]	–
Cc1cc(C)c(NC(=O)CN(C)S(=O)(=O)c2ccc3c(c2)n(C)c(=O)c(=O)n3C)c(C)c1	–	inactive: 24.7%
COc1c(Cl)cc(Cl)cc1C(=O)Nc1ccc(NC(=O)c2cccs2)cc1	–	inactive: -0.82% [at 9.24 µM]
N=c1c2c(-c3ccccc3)c(-c3ccccc3)oc2ncn1Cc1ccco1	inconclusive [cytotoxic, single point]	–
CN(C(=O)c1ccc(Cl)c([N+](=O)[O-])c1)C1(C)CCS(=O)(=O)C1 (stereo not drawn)	–	inactive: 2.17%
Cn1c(=O)c2c(nc(CN3CCN(c4cccc(Cl)c4)CC3)n2CCc2ccccc2)n(C)c1=O	–	inactive: -24.9%
COc1ccc(S(=O)(=O)N2CCCCCC2)cc1C(=O)N(C)Cc1ccc(Cl)cc1Cl	inconclusive [cytotoxic, single point]	–
